Results from the supplement of paper PMC12578646, “Prodrug florfenicol amine is activated by intrinsic resistance to target Mycobacterium abscessus” (Nature Microbiology, 2025).

How the values were obtained:
Test in all cases: growth relative to untreated wells; higher = more growth (less inhibition)
[1] = system: Mycobacterium abscessus ATCC 19977 Eis2 E120fs
Description: (§1)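 384-well two-fold dose series, two replicates; 5 days at 37 °C, then 24 h with resazurin; fluorescence scaled to growth and killed controls.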

[2] = system: Mycobacterium abscessus ATCC 19977 Eis2 T258R
Description: as §1

[3] = system: Mycobacterium abscessus ATCC 19977 Eis2 Y227D
Description: as §1

[4] = system: Mycobacterium abscessus ATCC 19977 Eis2 Y255*
Description: as §1

[5] = system: Mycobacterium abscessus ATCC 19977 Eis2 Y284*
Description: as §1

[6] = system: Mycobacterium abscessus ATCC 19977 WhiB7 F24fs
Description: as §1

[7] = system: Mycobacterium abscessus ATCC 19977 WhiB7 L37P
Description: as §1

[8] = system: Mycobacterium abscessus ATCC 19977 WhiB7 R76del
Description: as §1

[9] = system: Mycobacterium abscessus ATCC 19977 WhiB7 T70fs
Description: as §1

[10] = system: Mycobacterium abscessus ATCC 19977 Δeis2
Description: as §1

[11] = system: Mycobacterium abscessus ATCC 19977 ΔwhiB7
Description: as §1

[12] = system: Mycobacterium abscessus ATCC 19977
Description: as §1

O=C(N[C@H](CO)[C@H](O)c1ccc([N+](=O)[O-])cc1)C(Cl)Cl [chloramphenicol]
Details | growth [%]
[1], 0.5 µg/mL | 103 ± 1.1
[1], 1 µg/mL | 110 ± 3.5
[1], 2 µg/mL | 107.5 ± 0.3
[1], 4 µg/mL | 112 ± 4.9
[1], 8 µg/mL | 114 ± 2.7
[1], 16 µg/mL | 114 ± 2.1
[1], 32 µg/mL | 120 ± 9.1
[1], 64 µg/mL | 118 ± 1.2
[1], 128 µg/mL | 110 ± 9
[1], 256 µg/mL | 40.4 ± 8.5
[1], 512 µg/mL | 18.7 ± 4
[1], 1024 µg/mL | -1.89 ± 0.13
[2], 0.5 µg/mL | 98.56 ± 0.73
[2], 1 µg/mL | 94 ± 1.4
[2], 2 µg/mL | 99.41 ± 0.18
[2], 4 µg/mL | 106 ± 4.3
[2], 8 µg/mL | 105.1 ± 0.5
[2], 16 µg/mL | 110 ± 1.7
[2], 32 µg/mL | 108 ± 0.5
[2], 64 µg/mL | 87.5 ± 7.7
[2], 128 µg/mL | 64.3 ± 20
[2], 256 µg/mL | 9.42 ± 0.43
[2], 512 µg/mL | 3.66 ± 3.1
[2], 1024 µg/mL | -3.03 ± 0.65
[3], 0.5 µg/mL | 109 ± 3.4
[3], 1 µg/mL | 108 ± 1.3
[3], 2 µg/mL | 97 ± 3
[3], 4 µg/mL | 108 ± 3.8
[3], 8 µg/mL | 110 ± 1.7
[3], 16 µg/mL | 118 ± 1.9
[3], 32 µg/mL | 118 ± 1.6
[3], 64 µg/mL | 117 ± 5.2
[3], 128 µg/mL | 112 ± 4.5
[3], 256 µg/mL | 41.5 ± 8.3
[3], 512 µg/mL | 24.8 ± 1.9
[3], 1024 µg/mL | 0.729 ± 0.68
[4], 0.5 µg/mL | 101 ± 4.1
[4], 1 µg/mL | 102 ± 2.2
[4], 2 µg/mL | 103 ± 1.2
[4], 4 µg/mL | 108.2 ± 0.19
[4], 8 µg/mL | 107 ± 10
[4], 16 µg/mL | 112.8 ± 0.29
[4], 32 µg/mL | 116.9 ± 0.39
[4], 64 µg/mL | 110 ± 1.5
[4], 128 µg/mL | 84.4 ± 22
[4], 256 µg/mL | 31.6 ± 4.6
[4], 512 µg/mL | 13.5 ± 5.8
[4], 1024 µg/mL | -3.39 ± 2.7
[5], 0.5 µg/mL | 101.5 ± 0.93
[5], 1 µg/mL | 101 ± 1.6
[5], 2 µg/mL | 95 ± 7
[5], 4 µg/mL | 107.2 ± 0.86
[5], 8 µg/mL | 105 ± 2.2
[5], 16 µg/mL | 115 ± 3.4
[5], 32 µg/mL | 114 ± 1.6
[5], 64 µg/mL | 110 ± 4.4
[5], 128 µg/mL | 74.1 ± 3.1
[5], 256 µg/mL | 21.7 ± 3.3
[5], 512 µg/mL | 6.78 ± 1.2
[5], 1024 µg/mL | -2.458 ± 0.0093
[6], 0.5 µg/mL | 106 ± 5.6
[6], 1 µg/mL | 106 ± 1.4
[6], 2 µg/mL | 108 ± 6
[6], 4 µg/mL | 111.4 ± 0.68
[6], 8 µg/mL | 111 ± 2.4
[6], 16 µg/mL | 80.2 ± 5.7
[6], 32 µg/mL | 25.9 ± 6.9
[6], 64 µg/mL | 5.61 ± 1.6
[6], 128 µg/mL | -1.74 ± 0.56
[6], 256 µg/mL | -2.73 ± 0.11
[6], 512 µg/mL | -2.75 ± 0.54
[6], 1024 µg/mL | -2.71 ± 0.27
[7], 0.5 µg/mL | 101 ± 5
[7], 1 µg/mL | 104 ± 9.3
[7], 2 µg/mL | 110 ± 3.3
[7], 4 µg/mL | 113 ± 5.9
[7], 8 µg/mL | 120 ± 4.9
[7], 16 µg/mL | 111 ± 1.8
[7], 32 µg/mL | 46.4 ± 6.8
[7], 64 µg/mL | 12.5 ± 0.99
[7], 128 µg/mL | 1.16 ± 0.67
[7], 256 µg/mL | -2.05 ± 0.19
[7], 512 µg/mL | -2.37 ± 0.16
[7], 1024 µg/mL | -3.09 ± 0.13
[8], 0.5 µg/mL | 95.8 ± 4.7
[8], 1 µg/mL | 102 ± 2.1
[8], 2 µg/mL | 106 ± 7
[8], 4 µg/mL | 111.3 ± 0.84
[8], 8 µg/mL | 119.9 ± 0.15
[8], 16 µg/mL | 75.1 ± 7.7
[8], 32 µg/mL | 26.5 ± 6
[8], 64 µg/mL | 6.44 ± 0.59
[8], 128 µg/mL | -0.757 ± 0.78
[8], 256 µg/mL | -2.71 ± 0.28
[8], 512 µg/mL | -2.92 ± 0.8
[8], 1024 µg/mL | -2.76 ± 0.26
[9], 0.5 µg/mL | 95.9 ± 2.4
[9], 1 µg/mL | 98.28 ± 0.6
[9], 2 µg/mL | 102 ± 3.5
[9], 4 µg/mL | 113 ± 2.5
[9], 8 µg/mL | 116.4 ± 1.1
[9], 16 µg/mL | 78.7 ± 14
[9], 32 µg/mL | 31.5 ± 7.8
[9], 64 µg/mL | 4.21 ± 1.4
[9], 128 µg/mL | -2.65 ± 2
[9], 256 µg/mL | -4.87 ± 1.4
[9], 512 µg/mL | -4.87 ± 0.9
[9], 1024 µg/mL | -4.4 ± 0.93
[10], 0.5 µg/mL | 96.5 ± 1.9
[10], 1 µg/mL | 99.3 ± 1.6
[10], 2 µg/mL | 98.4 ± 8.1
[10], 4 µg/mL | 101 ± 5.5
[10], 8 µg/mL | 99.8 ± 1.3
[10], 16 µg/mL | 106 ± 0.35
[10], 32 µg/mL | 108 ± 1.4
[10], 64 µg/mL | 81.6 ± 3.4
[10], 128 µg/mL | 56 ± 33
[10], 256 µg/mL | 11.7 ± 3.8
[10], 512 µg/mL | 12.6 ± 6.2
[10], 1024 µg/mL | -2.85 ± 0.5
[11], 0.5 µg/mL | 91 ± 1.8
[11], 1 µg/mL | 97.7 ± 9.3
[11], 2 µg/mL | 97.7 ± 10
[11], 4 µg/mL | 118 ± 7.3
[11], 8 µg/mL | 119 ± 7.2
[11], 16 µg/mL | 84.6 ± 20
[11], 32 µg/mL | 47.1 ± 9.2
[11], 64 µg/mL | 15.7 ± 0.69
[11], 128 µg/mL | 1.73 ± 2.5
[11], 256 µg/mL | -3.73 ± 4
[11], 512 µg/mL | -4.45 ± 3.8
[11], 1024 µg/mL | -5.33 ± 4.4
[12], 0.5 µg/mL | 99.3 ± 1.2
[12], 1 µg/mL | 105 ± 1.8
[12], 2 µg/mL | 99.96 ± 0.22
[12], 4 µg/mL | 109 ± 4
[12], 8 µg/mL | 106 ± 2.9
[12], 16 µg/mL | 110 ± 4.3
[12], 32 µg/mL | 109 ± 2.5
[12], 64 µg/mL | 89.9 ± 2.5
[12], 128 µg/mL | 62.8 ± 26
[12], 256 µg/mL | 15.3 ± 3.1
[12], 512 µg/mL | 6.67 ± 4.8
[12], 1024 µg/mL | -2.09 ± 0.36

± gives the standard deviation of the averaged measurements. M. abscessus ATCC 19977 and its deletion, point and complemented mutants after 5 days of drug at 37 °C plus 24 h of resazurin. Growth in % of untreated wells at the dose given (lower = more inhibition); checkerboards give % inhibition (higher = more inhibition); IC50 from the fitted curve (lower = more potent). No active / inactive call. IC50 values come from the same 384-well curves. Growth is not capped and can exceed 100%. The direction of the checkerboard scale is read from the raw signals. Capreomycin is a mixture.
